# Results taken from publication PMC12040169 (PLOS Biology, 2025).
# Some of the results follow.
# Tested on: T1, C. trachomatis L2/434/Bu expressing GFP (CTL2-GFP)
# T1 construct: L2/434/Bu GFP intracellular growth in HeLa cells
# Set-up: species or system HeLa; C. trachomatis total inclusion area by high-content imaging, normalised to DMSO
# Conditions: total inclusion area; 28.5 h, 10 µM; inhibitor
# In short: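 Imaging read-out: GFP inclusions and Hoechst nuclei captured by high-content imaging after fixation. Inclusion area/number = chlamydial growth; nuclei count = host cell viability. MIC calculated per earlier method.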
row,Compound,% of control remaining
1,Cc1ccnc(NC(=O)c2ccccc2)c1 [CBK004031],18.1772
2,O=C(c1ccc(-c2nccnc2NCc2cccs2)cc1)N1CCOCC1 [CBK037059],86.2643
3,COc1ccc(-c2nnc(SCC(=O)NC(=O)c3ccccc3)n2CC(C)C)cc1 [CBK297527],66.0193
4,CS(=O)(=O)c1ccc(Cn2cc(CN3CCC(Sc4ccccn4)CC3)nn2)cc1 [CBK149475],91.121
5,O=S(=O)(Cc1ccccc1)NCc1ccccn1 [CBK262241],83.5391
6,NS(=O)(=O)c1ccc(NC(=S)Nc2nn(Cc3ccc(Cl)c(Cl)c3)cc2Br)cc1 [CBK267082],77.5471
7,CC(C)(C)OC(=O)N1CCC(Oc2nccc3c2ccn3Cc2ccc(S(C)(=O)=O)cc2)CC1 [CBK132881],32.1208
8,O=[N+]([O-])c1ccc(S(=O)(=O)Nc2nnc(Cc3ccc(Cl)cc3)s2)cc1 [CBK200046],90.5984
9,Cc1ncsc1CCOc1nc2ccccc2nc1NC(C)C [CBK115736],85.6133
10,Cc1cc(C)cc(OCC(=O)NNC(=O)CN2C(=O)c3ccccc3C2=O)c1 [CBK262394],116.555
11,O=C(O)CCN1C(=O)c2ccc(NC(=O)Cc3cccs3)cc2C1=O [CBK268240],100.124
12,Cc1ccc(-c2csc3c(=O)[nH]c(N4CCCC(C(=O)NCC(N)=O)C4)nc23)cc1 (stereo not drawn) [CBK215542],112.831
13,Cc1ccc2c(c1)C1(CCN(CC3CC3)CC1)NC(=O)C2 [CBK040217],70.9438
14,O=C(O)CSCc1ccc(C(=O)O)o1 [CBK263267],107.288
15,CN1CCC(N(C)C(=O)NCCCN2CCCC2=O)C1 (stereo not drawn) [CBK156021],96.5827
16,O=C(NCc1cccnc1)c1ccccc1-n1cccc1 [CBK149602],81.3625
17,O=C(CCCOc1ccccc1)NCc1ccc(OC2CCNCC2)cc1 [CBK028427T],100.358
18,CCC1CCCCN1C(=O)c1cc2cc(Cl)ccc2[nH]1 (stereo not drawn) [CBK074329],114.77
19,Cc1cccc(CN(CC(=O)Nc2ccc3c(c2)OCCO3)S(=O)(=O)c2ccc(Cl)cc2)c1 [CBK264910],88.607
20,O=C1COc2ccccc2C/C=C/CC2(CCNCC2)C(=O)NCCN1 [CBK291996],91.6597
21,O=C1COc2ccccc2CCCC[C@@H]2CN(C(=O)CCN3CCCC3=O)CC[C@H]2N1 [CBK292044],90.3079
22,CN1CCC(N(C)C(=O)Nc2ccc3[nH]ccc3c2)C1 (stereo not drawn) [CBK156006],79.6682
23,O=C(NCc1cc(Br)ccc1F)C1CC(=O)N(Cc2ccccn2)C1 (stereo not drawn) [CBK305242],76.1405
24,COC(=O)c1ccc(NC(=O)Cn2nnc(-c3ccc(CN4CCOCC4)cc3)n2)cc1 [CBK134589],87.463
25,O=C(O)CCc1nn2c3ccccc3n(CCN3CCCCC3)c2nc1=O [CBK267519],88.3783
26,Cc1ccc(S(=O)(=O)N2CCC(OC(N)=O)CC2)cc1 [CBK003369],84.5111

row,Compound,% of control remaining
1,NS(=O)(=O)c1ccc(CNS(=O)(=O)Cc2ccccc2)cc1 [CBK228048],90.5274
2,Cc1onc(-c2ccccc2)c1CNC(=O)CC1CCCCC1 [CBK144078],75.8449
3,C=CCOc1nc2c(=O)[nH]c(/N=C/N(C)C)nc2n1C1CC(O)C(CO)O1 (stereo not drawn) [CBK201299],96.8607
4,Cc1cc(C)nc(N2CCC(CC(=O)NCC(C)N3CCCCCC3)CC2)n1 (stereo not drawn) [CBK286029],77.2891
5,O=C(CSc1nnc2ccc3ccccc3n12)Nc1nsc(-c2ccc(Cl)cc2)n1 [CBK266460],94.7644
6,CCc1nnc(NS(=O)(=O)c2c(C)nn(C)c2Cl)s1 [CBK062180],93.0941
7,O=C(O)C(c1c[nH]c2ccccc12)N1CCOCC1 (stereo not drawn) [CBK286739],93.3128
8,COc1ccc(-c2ccc(=O)n(CCN)n2)cc1 [CBK270130C],103.826
9,CCOc1cc(OCC)cc(C(=O)N2CCC3(CC2)CC(=O)c2cc(CC)ccc2O3)c1 [CBK168009],117.396
10,CN(C(=O)c1c[nH]nc1-c1ccc(CNC(=O)Cc2ccc(F)cc2)cc1)c1ccccc1 [CBK285599],104.106
11,N#C/C(=C\c1ccc(Oc2ccc(C(F)(F)F)cc2[N+](=O)[O-])cc1)c1nc2ccccc2[nH]1 [CBK263878],84.0345
12,Cc1ccc(Cc2cnc(NC(=O)CN3CCCCC3)s2)cc1Cl [CBK307299],103.011
13,CC(CC(=O)O)CC(=O)NC1CCN(Cc2ccccc2)CC1 (stereo not drawn) [CBK287042],86.4402
14,O=c1[nH]c(=O)n([C@H]2C[C@@H](O)[C@@H](CO)O2)cc1O [CBK201317],95.5866
15,CCN1CCN(c2ccc(C(=O)OC)cc2NC(=O)c2ccc(C#N)cc2F)CC1 [CBK270171],98.6969
16,CC1CCN(Cc2ccc(-c3cn(CC(=O)NCc4ccc(Br)cc4)cn3)cc2)CC1 [CBK165969],71.4782
17,O=C(CCCN[C@H]1CC[C@](O)(c2ccc(F)cc2)CC1)c1ccc(F)cc1 [CBK023258C],58.7522
18,O=S(=O)(Nc1cccnc1N1CCOCC1)c1cc(C(F)(F)F)cc(C(F)(F)F)c1 [CBK062306],118.849
19,CCn1cc(C(=O)O)c(=O)c2cnc(N3CCN(C(=S)Nc4cc5oc6ccccc6c5cc4OC)CC3)nc21 [CBK267929],105.26
20,COc1ccc(C=C2CCCC3C2=NN(C(=O)CCC(=O)O)C3c2ccc(OC)c(OC)c2)cc1OC (stereo not drawn) [CBK296070],90.7885
21,O=C(CSc1nnc(-c2ccc(Cl)cc2)n1-c1ccccc1)N/N=C/c1ccccn1 [CBK263001],102.121
22,O=c1cc(CN2CCc3ccccc3C2)[nH]c(=O)[nH]1 [CBK126401],90.9439
23,O=C(CSc1nccn1-c1ccccc1)Nc1ccc(F)cc1 [CBK287399],110.248
24,O=C(CSc1nnc(-c2ccc(Cl)cc2Cl)o1)c1ccc2c(c1)OCCO2 [CBK268839],96.6045
25,CCOC(=O)N1CCN(C(=O)c2ccc(CS(=O)(=O)c3ccc(C)cc3)cc2)CC1 [CBK268659],133.732
26,c1ccc(-c2cc(CC3(NCc4c[nH]c5ccccc45)COC3)no2)nc1 [CBK289250],92.6552

row,Compound,% of control remaining
1,CN1CCN(C(=O)c2[nH]c3ccccc3c2NS(=O)(=O)/C=C/c2ccccc2)CC1 [CBK050047],63.8696
2,CCCC1=NNC(=O)/C1=C\c1cnc[nH]1 [CBK067767],90.6957
3,CS(=O)(=O)N1CCCc2cc(-c3csc(N)n3)ccc21 [CBK305859],5.674
4,CCC1CN(Cc2ccccc2)CCN1c1cncc(Cl)n1 (stereo not drawn) [CBK003645],92.1542
5,CC(C)C(=O)N1CCC(n2nc(C3CC3)ccc2=O)CC1 [CBK282351],61.3273
6,CCc1nc2ccc(C(=O)Nc3ccc(Cl)c(Cl)c3)cn2c1N(CC)CCOC [CBK146042],97.1437
7,COc1cc(Nc2cncc(-c3cccnc3)n2)cc(OC)c1OC [CBK065201],146.506
8,CN(CCN1CCCCC1)C(=O)CCc1cn(C)c2ccccc12 [CBK281906],83.5345
9,O=C(C1CCCC1)N1CC(n2nc(-c3ccccc3)ccc2=O)C1 [CBK284617],106.88
10,Cc1ccc2[nH]c([C@H]3CCN(C(=O)NC(C)C)C3)nc2c1 [CBK289375],106.782
11,O=C(COc1ccc(Br)cc1)Nc1ccc(Cl)c(-c2nc3ccccc3[nH]2)c1 [CBK263075],98.8914
12,COCCNc1nc(-c2ccc([N+](=O)[O-])cc2)nc2ccccc12 [CBK264819],106.578
13,Cc1nn(C)c(C)c1OCC(=O)Nc1nc2c(cc1C#N)CCC2 [CBK306371],63.0545
14,NC(=O)CN1CC2(CCN(CCCCC3NC(=O)NC3=O)CC2)c2ccccc21 (stereo not drawn) [CBK126799],93.0519
15,CC(=O)Nc1ccc(CNC(=O)c2ccc[nH]2)cc1 [CBK304538],83.4403
16,O=C(O)c1cccc(NS(=O)(=O)c2cccnc2)c1 [CBK155700],80.9658
17,Cn1cc(CNCC2CCN(c3ccccc3)C2)c(-c2cccnc2)n1 (stereo not drawn) [CBK304155],98.0932
18,CC(=O)N1CCC2(CCCC[C@H]3CN(C(=O)C(C)C)CC[C@@H]3NC(=O)CNC2=O)CC1 [CBK292121],112.122
19,c1coc(CNc2nccnc2-c2cccs2)c1 [CBK036618],88.6758
20,O=C(c1ccccc1F)N1C[C@H](c2ccsc2)[C@H]2CN(Cc3ccccc3F)CC[C@H]21 [CBK285656],58.8969
21,Cc1ccc(OC(C)C(=O)Nc2ccc(S(=O)(=O)Nc3cc(C)on3)cc2)cc1 (stereo not drawn) [CBK268757],77.0682
22,COC(=O)c1c(NC(=S)N2CCN(Cc3c(C)nn(C)c3C)CC2)sc2c1CCC(C)C2 (stereo not drawn) [CBK267103],107.215
23,O=C(Cn1nc(N2CCSCC2)ccc1=O)Nc1ccccc1 [CBK307623],112.293
24,COc1cc(NC(=O)c2ccc3c(c2)C(=O)N(c2ccccc2OC)C3=O)c(C(=O)O)cc1OC [CBK262787],117.636
25,COCCNc1nc2c(c(N3CCCCCC3)n1)CCNCC2 [CBK306724],1.407
26,O=C(c1cc(-c2ccncc2)nc2ccc(Cl)cc12)N1CCN(CCc2ccccc2)CC1 [CBK267719],95.6506
